Laboratory results taken from patent publication US20160089386A1, “TREATING AND PREVENTING DISEASE WITH TMA AND TMAO LOWERING AGENTS” (The Cleveland Clinic Foundation, priority 2014, published 2016).

Experiments:
[1] = for renal parenchymal fibrosis: dietary exposure of either choline or TMAO in mice; for serum cystatin C levels: feeding extended to 16 weeks, compared to chow-fed mice; for kidney injury marker-1 (KIM-1) / phosphorylation of Smad3: mouse kidneys; for kidney injury marker-1 (KIM-1): 6 weeks diet (choline 1.0% or TMAO 0.12%), vs chow; for phosphorylation of Smad3: brief exposure (6 weeks) to high choline or TMAO supplemented diet
[2] = Plasma TMAO in mice on chow or choline diet with or without ASA in drinking water; type: in vivo; conditions: ASA 4 mg/Kg BW in drinking water, 2 weeks

Structure (SMILES)	renal parenchymal fibrosis [1]	serum cystatin C levels [1]	kidney injury marker-1 (KIM-1) [1]	phosphorylation of Smad3 [1]	TMAO monitored in plasma ([2]; choline diet (0.5 gm %))	TMAO monitored in plasma ([2]; chow diet)
C[N+](C)(C)[O-] [TMAO, trimethylamine N-oxide]	development of renal parenchymal fibrosis	increased	increased	enhanced phosphorylation	–	–
CC(=O)Oc1ccccc1C(=O)O [ASA, acetylsalicylic acid]	–	–	–	–	19.7 µM	4.5 µM
C[N+](C)(C)CCO [choline]	development of renal parenchymal fibrosis	increased	increased	enhanced phosphorylation	–	–
